# In PubChem BioAssay AID651820 (National Center for Advancing Translational Sciences (NCATS), 2012):
# “And” between values parts separate entries of the source, which are not always exact repeats. Equal entries are not always repeated. The whole screen tested about 340,000 compounds, of which about 12,000 (3.5%) were called active. This list was built around the results that the source calls inconclusive (neither active nor inactive); the mix of calls is not that of the screen. Calls come from the whole dose curve; as a rule, active = well fitted inhibition curve with a large enough effect; inconclusive = small, poorly fitted or top-dose-only effect, or another doubt; inactive = no such curve, though single readings can be large or run the other way. Where the call is inconclusive, the potency comes from a doubtful curve fit.
# Assay: qHTS Assay for Inhibitors of Hepatitis C Virus (HCV)
# Details: Huh7.5.1 HCVcc-Cre (HCVcc is cell-culture hepatitis C virus) infection, luciferase reporter, 44 h; activity change, negative = inhibition: at 41.8 µM (top of the series)
# Procedure, shortened: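 Whole-lifecycle infectious HCVcc-Cre system; cells 1,000/well, compound then virus (~0.5 moi) added 4 h after plating, 44 h culture. Luciferase read 15 sec following 15 min substrate incubation, room temp.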
# % is set by controls: 0 for no effect and ±100 for the full control effect; potency is the fitted concentration of half-maximal effect; tags give direction and shape of the fitted curve.
SMILES,Potency,"activity change, negative = inhibition"
O=C(CN1CCN(C(=O)C2CC2)CC1)Nc1cc(C(F)(F)F)cc(C(F)(F)F)c1,"inconclusive: 3.98 µM [inhibitor, single point]",–
Cc1ccc(NC(=O)c2c(C(F)(F)F)nn(C)c2SCc2ccc(Cl)cc2)cc1C,–,inactive: 5.54%
O=C(Nc1ccc(N2CCCC2)c(Cl)c1)c1ccc2c(c1)OCCO2,"inconclusive: 31.6 µM [inhibitor, single point]",–
Cc1cc(NC(=O)c2cccc(S(=O)(=O)N3CC(c4ccccc4)CC3=O)c2)no1 (stereo not given),"inconclusive: 10 µM [inhibitor, single point]",–
COc1cccc2c1OCC(CN1CCN(Cc3ccccc3F)C(CCO)C1)=C2 (stereo not given),"inconclusive: 31.6 µM [inhibitor, single point]",–
Clc1ccc(-c2cn3ccccc3n2)cc1,–,inactive: -5.27%
Oc1c(C(c2ccccn2)N2CCOCC2)ccc2cccnc12 (stereo not given),active: 3.55 µM,–
Cc1nnc(SCC(=O)c2cc(C)n(C3CC3)c2C)s1,"inconclusive: 1.26 µM [inhibitor, partial curve, poor fit]",–
O=C(c1nc2nc(-c3cccs3)cc(C(F)(F)F)n2n1)N1CCN(Cc2ccccc2)CC1,"inconclusive: 31.6 µM [inhibitor, single point]",–
COc1ccc(C(=O)C2CCCN(S(=O)(=O)c3ccccc3F)C2)c(C)c1 (stereo not given),"inconclusive: 25.1 µM [inhibitor, single point]",–
O=S(=O)(c1ccc(Br)cc1)c1nc(-c2ccccc2)oc1N1CCOCC1,"inconclusive: 3.16 µM [inhibitor, partial curve, poor fit]",–
Nc1cccc2c1C(=O)N(C(=O)/C=C/c1cccc(F)c1)C2=O,"inconclusive: 20 µM [inhibitor, single point]",–
COc1ccc(NC(=S)NC2CCCCCC2)c(OC)c1,"inconclusive: 12.6 µM [inhibitor, single point]",–
COc1ccc(/C=C/C(=O)NC2CCN(Cc3ccccc3)CC2)cc1OC,–,inactive: -17.3%
COc1cc(/C=N/NC(=O)CC2(C)OCCCO2)ccc1OCc1ccc(Cl)cc1Cl,"inconclusive: 5.01 µM [inhibitor, full curve]",–
C/C(=N\Nc1nc2ccc(Cl)cc2o1)c1ccccc1,–,inactive: -2.6%
COc1ccc(-c2cc(=O)oc3cc(OC(C)C(=O)NCCCn4ccnc4)ccc23)cc1 (stereo not given),"inconclusive: 22.4 µM [inhibitor, partial curve]",–
COc1cccc(C(=O)Nc2cccc(NC(=O)c3cccs3)c2)c1,"inconclusive: 11.2 µM [inhibitor, single point]",–
Cc1cc(C)c(C#N)c(SCc2cn3ccccc3n2)n1,"inconclusive: 2.51 µM [inhibitor, single point]",–
Cc1cccc(CCNC(=O)C2CCN(S(=O)(=O)N3CCOCC3)CC2)c1,"inconclusive: 31.6 µM [inhibitor, single point]",–
COC(=O)c1cccc(C(=O)Nc2ccc(C)cc2)n1,"inconclusive: 31.6 µM [inhibitor, single point]",–
CCCC(=O)Nc1cccc(NC(=O)c2ccccc2Br)c1,"inconclusive: 1 µM [inhibitor, full curve]",–
COC(=O)CNC(c1ccccc1Cl)c1cc(Br)ccc1NC(=O)CCN1CCOCC1 (stereo not given),"inconclusive: 6.31 µM [inhibitor, partial curve]",–
COc1cccc(OC)c1C(=O)NC(=S)Nc1cccc(NC(=O)c2ccco2)c1,–,inactive: 15.2%

SMILES,Potency,"activity change, negative = inhibition"
COc1ccc2oc(=O)cc(CN3CCN(Cc4ccc(OC)c(OC)c4OC)CC3)c2c1,active: 3.55 µM,–
O=C(NN=C1CCCC1)c1cc(O)cc(O)c1,–,inactive: 18.7%
Cc1ccc(NC(=O)c2ccc(C(C)(C)C)cc2)cc1[N+](=O)[O-],"inconclusive: 10 µM [inhibitor, single point]",–
COc1ccc(/C=N\n2nnc3ccccc32)cc1,"inconclusive: 11.2 µM [inhibitor, single point]",–
CC1CN(C(=O)c2ccc(OC3CCN(Cc4ccccn4)CC3)cc2)CCN1C (stereo not given),–,inactive: -1.1%
COc1cc(Br)cc(CN2CCN(C=O)CC2)c1O,–,inactive: 5.25%
NC(=O)c1nsc(C(=O)N(Cc2ccco2)C(C(=O)NCc2ccccc2)c2ccc(O)cc2)c1N (stereo not given),"inconclusive: 10 µM [inhibitor, single point]",–
CC1(C(=O)NCCc2c[nH]c3ccccc23)C=CC2(CCCCC2)N1C(=O)c1ccccc1 (stereo not given),"inconclusive: 35.5 µM [inhibitor, partial curve]",–
Cc1ccc(-n2cc(CNCCc3cscn3)c(-c3ccc(F)cc3)n2)cc1,"inconclusive: 31.6 µM [inhibitor, single point]",–
COC(=O)c1cc(C(=O)c2c(C)cc3ccccn23)cc([N+](=O)[O-])c1,"inconclusive: 14.1 µM [inhibitor, single point]",–
CCc1cc2ccc(C)cc2nc1SCC(=O)N1CCN(C(=O)c2ccco2)CC1,"inactive and inconclusive: 31.6 µM [inhibitor, single point]",–
O=C(Nc1cccc(NC(=O)C2CC3CCCC(C2)C3=O)n1)C1CC2CCCC(C1)C2=O (stereo not given),"inconclusive: 25.1 µM [inhibitor, partial curve]",–
Cc1c[n+]([O-])ccc1[N+](=O)[O-],–,inactive: -10.3%
COc1ccc([C@H]2CC(=O)C=C(c3ccc(F)cc3OCc3ccccc3)C2)cc1OC,"inconclusive: 0.501 µM [inhibitor, partial curve, poor fit]",–
COc1ccc(C)cc1NC(C)C(=O)NC(=O)NC1CCCCC1 (stereo not given),–,inactive: 7.29%
O=C(/C=C\c1ccc2c(c1)OCO2)Nc1c2c(nn1-c1ccc(Cl)cc1)CSC2,"inconclusive: 1.26 µM [inhibitor, partial curve]",–
Oc1ccc(/C(Cc2ccc3ccccc3n2)=N\Nc2ccccc2)c(O)c1,"inconclusive: 31.6 µM [inhibitor, single point]",–
CC1CCN(CCc2nc3cc(NC(=O)Nc4ccccc4)ccc3n2C)CC1,"inconclusive: 31.6 µM [inhibitor, single point]",–
O=c1ccc2cc3c(-c4ccccc4)coc3cc2o1,"inconclusive: 31.6 µM [inhibitor, single point]",–
CC(NC(=O)CC(c1ccccc1)c1cc(Cl)ccc1O)c1ccccc1 (stereo not given),"inconclusive: 31.6 µM [inhibitor, single point]",–
O=C(NCc1cccnc1)c1ccc(COc2ccccc2Cl)o1,"inconclusive: 8.91 µM [inhibitor, partial curve]",–
CC(C)c1ccc(/C=C2\SC(N3CCOCC3)=NC2=O)cc1,"inconclusive: 11.2 µM [inhibitor, single point]",–
COC(=O)C1Cc2ccccc2CN1S(=O)(=O)c1ccc(F)cc1 (stereo not given),–,inactive: 11.8%
O=C(c1ccco1)N1CCN(C(c2ccccc2)c2nnnn2Cc2cccs2)CC1 (stereo not given),–,inactive: -14%

SMILES,Potency,"activity change, negative = inhibition"
CCC(=O)NC(c1ccc(OC)cc1)c1cc(Cl)c2cccnc2c1O (stereo not given),active: 2.51 µM,–
Cc1cc(N2CCCC2)nc2ccc(NC(=S)NCCCOC(C)C)cc12,"inconclusive: 10 µM [inhibitor, partial curve]",–
C/C(=N\NC(=O)c1ccccc1O)c1ccc(NC(=O)c2ccccc2)cc1,–,inactive: -19.6%
COc1cc2c(cc1OC)CN(Cc1cc(=O)oc3c(C)c(C)ccc13)CC2,"inconclusive: 12.6 µM [inhibitor, single point]",–
CCc1ccc(/C=C/c2c[nH]c3ccccc23)[n+](CC)c1,"inconclusive: 8.91 µM [inhibitor, partial curve]",–
COc1ccc(/C=C/C(=O)NC(=S)N2CCSCC2)cc1,–,inactive: -5.46%
CC1Cc2ccccc2N1C(=O)Cn1cc([N+](=O)[O-])ccc1=O (stereo not given),"inconclusive: 11.2 µM [inhibitor, single point]",–
CCOC(=O)c1ccccc1NC(=O)COC(=O)CSCC(=O)Nc1cc(C)on1,"inconclusive: 8.91 µM [inhibitor, partial curve]",–
Cc1nn2c(NCCOCCO)c3c(nc2c1-c1ccccc1)CCCC3,active: 11.2 µM,–
c1ccc(Cn2ncc3c(N4CCN(C(c5ccccc5)c5ccccc5)CC4)ncnc32)cc1,"inconclusive: 28.2 µM [inhibitor, single point]",–
O=C(c1ccc2c3c(cccc13)CC2)C1CCCN(Cc2ccncc2)C1 (stereo not given),"inconclusive: 8.91 µM [inhibitor, partial curve]",–
Cc1cccc(N2CCN(S(=O)(=O)c3c(C)nc4scc(C)n4c3=O)CC2)c1C,"inconclusive: 31.6 µM [inhibitor, single point]",–
COc1ccccc1-c1nnc(SCC(=O)N2CCCCC2)o1,–,inactive: 15.2%
COc1ccc(C2N(c3ccc4c(c3)OCCO4)C(=O)C2(F)F)cc1OC (stereo not given),–,inactive: -22.1%
CCOc1ccc2c(c1)C(c1ccc(C)cc1)=NNC(c1ccc(OC)cc1)=N2,"inconclusive: 6.31 µM [inhibitor, full curve, poor fit]",–
Cc1nn(C)c(C)c1NC(=O)COc1ccc(Cl)cc1,active: 11.2 µM,–
COCCCNC(=O)c1c(NC(=O)c2cccs2)sc2c1CCCC2,"inconclusive: 3.98 µM [inhibitor, full curve]",–
Cn1c(Cn2cnc3ccccc32)nnc1SCC(=O)CC(=O)Nc1ccccc1,–,inactive: 18.5%
C=CCOC(=O)c1cc(-c2ccc(/C=C3\C(=O)NC(=O)C(C#N)=C3C)o2)ccc1Cl,–,inactive: 4.93%
COc1ccc(Cn2nnnc2CN(Cc2cc3cc(C)ccc3[nH]c2=O)C2CCCC2)cc1,"inconclusive: 28.2 µM [inhibitor, single point]",–
CC(C)(C)c1ccc(C(=O)Nc2ccc(S(N)(=O)=O)cc2)cc1,active: 22.4 µM,–
COc1cc2cnc(-c3ccccc3)cc2cc1OC,active: 22.4 µM,–
